In PubChem BioAssay (Tox21):
The inconclusive results got no clear call from the source; some entries with a clear call stand among them for comparison. Where the call is inconclusive, the potency comes from a doubtful curve fit. Calls of active or inactive are those of the source. The call rests on the fitted dose curve; in most records, active means well fitted inhibition curve with a large enough effect in the repeat runs; inconclusive means weak or mixed curves; inactive means no such curve, though single readings can be large or run the other way.

Biological target: Cytochrome P450 1A2 (Homo sapiens) (UniProt P05177)
Assay: Cytochrome P450 Family 1 Subfamily A Member 2 (CYP1A2) small molecule antagonists: luciferase reporter qHTS assay (AID 1671199); further: nearly all actives have a fitted effect of over 50% in size
Details: P450-Glo CYP1A2 enzyme, luciferin luminescence, 1 h; series mostly up to 115 µM
Summary of the method: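 P450-Glo CYP1A2 enzyme–proluciferin substrate mix with compound 10 min at room temperature, then NADPH regeneration 1 h at room temperature. Luciferin detection reagent added, luminescence read after 20 min; furafylline positive control.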
Potency means the concentration at half of the fitted maximal effect; tags describe the fitted curve by direction and shape.

UniProt P05177, sequence (P05177 whole entry, looked up): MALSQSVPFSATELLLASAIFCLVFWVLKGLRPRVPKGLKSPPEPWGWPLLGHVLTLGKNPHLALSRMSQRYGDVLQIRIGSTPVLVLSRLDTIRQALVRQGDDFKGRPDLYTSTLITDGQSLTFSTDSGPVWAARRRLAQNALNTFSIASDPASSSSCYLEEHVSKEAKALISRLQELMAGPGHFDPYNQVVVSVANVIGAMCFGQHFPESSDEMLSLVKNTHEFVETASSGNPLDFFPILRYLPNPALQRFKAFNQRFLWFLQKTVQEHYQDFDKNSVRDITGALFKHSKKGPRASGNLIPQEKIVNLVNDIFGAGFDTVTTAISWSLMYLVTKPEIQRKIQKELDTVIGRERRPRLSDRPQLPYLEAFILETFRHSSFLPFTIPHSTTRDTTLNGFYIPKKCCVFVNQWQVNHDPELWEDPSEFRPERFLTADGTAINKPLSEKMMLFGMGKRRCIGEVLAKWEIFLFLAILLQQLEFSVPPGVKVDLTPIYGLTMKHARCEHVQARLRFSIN

| Structure (SMILES) | Potency |
| --- | --- |
| CC(=O)OCCC(C)CC(C)(C)C (configuration not stated) | inactive |
| CN(CCCN1c2ccccc2CCc2ccccc21)CC(=O)c1ccc(Cl)cc1 | active: 11 µM |
| O=C1C(=O)c2ccccc2C(O)=C1C1CCC(c2ccc(Cl)cc2)CC1 (configuration not stated) | inactive |
| CCCCOC(=O)CC | inactive |
| Brc1cc(-c2ccc(Br)c(Br)c2Br)cc(Br)c1Br | inconclusive: 27.8 µM [inhibitor, partial curve] |
| CCC(=O)OC(=O)CC | inactive |
| C=Cc1ccccc1C=C | inconclusive: 251 µM [inhibitor, partial curve, poor fit] |
| CCCCOCCO | inconclusive: 35.6 µM [inhibitor, partial curve] |
| C/C=C(\C)C(=O)OCCC(C)CCC=C(C)C (configuration not stated) | inconclusive: 71 µM [inhibitor, partial curve] |
| CC1(C)CC(N)CC(C)(CN)C1 (configuration not stated) | inconclusive: 72.1 µM [inhibitor, partial curve, poor fit] |
| CCOc1ncc(F)c(=O)[nH]1 | inconclusive: 27.5 µM [inhibitor, partial curve] |
| CCSC(=O)N(CC)CC | inconclusive: 17.8 µM [inhibitor, full curve] |
| CC(=O)SC[C@@H](Cc1ccccc1)C(=O)NCC(=O)OCc1ccccc1 | inconclusive: 14.4 µM [inhibitor, partial curve] |
| CCOC(=O)CCC(=O)OCC | inactive |
| CCCN1CCCC[C@H]1C(=O)Nc1c(C)cccc1C | inactive |
| Cc1ccc(S(=O)(=O)O)cc1C | inconclusive: 71 µM [inhibitor, partial curve] |
| CCCCCCC(O)CCOC(C)=O (configuration not stated) | inconclusive: 118 µM [inhibitor, partial curve] |
| O=[N+]([O-])c1ccc(F)c(Cl)c1 | inconclusive: 63.5 µM [inhibitor, partial curve] |
| OCCN(CCO)c1cccc(Cl)c1 | inconclusive: 44.8 µM [inhibitor, partial curve] |
| Cc1cc(C)c(S(=O)(=O)O)cc1N=Nc1cc(S(=O)(=O)O)c2ccccc2c1O | inconclusive: 39.9 µM [inhibitor, partial curve] |
| Cc1c[nH]c2ccccc12 | active: 14.4 µM |
| O=Cc1c(Cl)cccc1Cl | inconclusive: 65.4 µM [inhibitor, partial curve] |
